This is an account of results in the supplement of paper PMC11417369.

The other results are listed elsewhere or left out.

The test system of the test is PF3D7_0420300 AP2 domain 1 (GST-tagged). Description: gcPBM binding intensity (ln(normalized median fluorescence intensity)); higher = stronger DNA binding. In a few lines: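 Binding of GST-tagged P. falciparum DNA-binding domains, expressed in E. coli and used at about 25 μg on average, was carried out for 1 h in 1× PBS containing 1% milk, 0.2 mg/ml BSA, 0.5% salmon testes DNA and 0.03% Triton X-100. The target was an Agilent 4 × 180k array of primer-extended double-stranded 36-bp intergenic genomic probes plus negative controls, read with Alexa488 anti-GST antibody at 488 nm. Binding intensity is the highest Masliner-normalised natural-log median intensity across replicate spots of either probe orientation.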
Take “GATATATTATTTGAATGTACATATTATATTTATATT [XGTACX_site907]”: the “gcPBM binding intensity (ln)” value came out at 9.26.
The figure for “ATTGTATATGTATATGCACACAATATATGTACTTAT [CACACA_site2611]” is 9.51.
For the sequence “TTTTTTTAGTTAATTAAACACACAAAAAAAAAAATA [CACACA_site9301]”, the “gcPBM binding intensity (ln)” value is 9.05.
For “GTTAGAATTGTTAGGTGGTCAAAAAGGAGAAAAAAA [XGTACX_site2086]” the value was 9.17; for “AAAAGAAAATTAAATTAACACACATAAATATATATA [CACACA_site8482]”, 9.52; for “TTCACATACAGAAACACACACATATTTATAAATTAA [CACACA_site7699]”, 9.69.
With “TTTTTAATTAACTTTTTATAAATAAATAAAAATATA [GTGCAC_negctrl_site334]”, the “gcPBM binding intensity (ln)” value was 8.55.
Turning to “ATTATTTAATTTTATTAAAAAAAAACAAATTAACAG [GTGCAC_negctrl_site152]”, the “gcPBM binding intensity (ln)” value is 8.93.
TTAAAATAGATATTAGTGCAAAAAAAAAAAAATAAA: the “gcPBM binding intensity (ln)” value was 9.26.
For “TTTTGATATAAATATTAGATTAATAAATAAAAAAAT [CACACA_negctrl_site1635]”, the “gcPBM binding intensity (ln)” value is 8.99.
For the sequence TTTTTTGTTTGAATGGTGCATTTTGTAATTATATTT, the “gcPBM binding intensity (ln)” value came out at 9.5.
The figure for “ATAATATCATAATATTGTACATATTTTATTTTAAAT [XGTACX_site1115]” is 9.06; for “CAACTAACATATATTCAACACACATATACCTTCAAC [CACACA_site8988]” it is 9.66.
With “GGTCTTATTTTTAGTAGTACAAATATAATATACATA [XGTACX_site6483]”, the “gcPBM binding intensity (ln)” value was 9.3.
Turning to “TTTTTTTTTTTTTGTTGTACCCATCATATATACATA [XGTACX_site4342]”, the “gcPBM binding intensity (ln)” value is 9.36.
In the case of “TATAAAAATATTTAATGTACGAATCTGTGATATATC [XGTACX_site7881]”, the “gcPBM binding intensity (ln)” value came to 9.2.
Take ATATATTACATATGTGTGCACGTTCCAAAATTTTTA: the “gcPBM binding intensity (ln)” value is 9.59.
For the sequence “CTAAACAGAATTATCACACATATAAATATAAACATA [CACACA_site4560]”, the “gcPBM binding intensity (ln)” value came to 9.48.
“AAAATACACGCATACACACACACACGCGCACATATA [CACACA_site6448]”: the “gcPBM binding intensity (ln)” value came out at 10.3.
As for “ATTATTAAAAGAAGAAGTACTTATATATTAATATTA [XGTACX_site5227]”, the “gcPBM binding intensity (ln)” value came out at 9.02.
In the case of “TTTTCATGTTGTAAAGCATGCTTTACTCATAAAAAA [TGCATGCA_site917]”, the “gcPBM binding intensity (ln)” value stood at 8.75.
Turning to “AAATAATATTTATACACACACACATATTTATATACA [CACACA_site6403]”, the “gcPBM binding intensity (ln)” value is 10.1.
Regarding “TTATTTTATTTTGAAGCATGCTTTTTGCTGTGATAA [TGCATGCA_site278]”, the “gcPBM binding intensity (ln)” value came to 8.8.
With “TTATGCGTTTGCAAAAGTACATATCTATTATTTTTA [XGTACX_site7609]”, the “gcPBM binding intensity (ln)” value came out at 9.07.
On to “AAAATATACATAAACACACACAAAACGTTTAAGAAA [CACACA_site1071]”, for which the “gcPBM binding intensity (ln)” value came to 9.91.
